# Paper PMC4336329 (PLoS ONE, 2015)
# Among all 310,000 compounds or so, about 14,000 (4.5%) showed an effect of 50% or more. Effects have a minus sign here. The list shows a part of the results.
# Target: human ether-à-go-go-related gene (hERG) potassium channel (human, UniProt Q12809)
# Assay: primary screen, population patch clamp on CHO cells stably expressing hERG
# 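Further: peak tail current of the secondary pulse compared with the same well before compound.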
# Sequence of human ether-à-go-go-related gene (hERG) potassium channel (Q12809 whole entry, looked up): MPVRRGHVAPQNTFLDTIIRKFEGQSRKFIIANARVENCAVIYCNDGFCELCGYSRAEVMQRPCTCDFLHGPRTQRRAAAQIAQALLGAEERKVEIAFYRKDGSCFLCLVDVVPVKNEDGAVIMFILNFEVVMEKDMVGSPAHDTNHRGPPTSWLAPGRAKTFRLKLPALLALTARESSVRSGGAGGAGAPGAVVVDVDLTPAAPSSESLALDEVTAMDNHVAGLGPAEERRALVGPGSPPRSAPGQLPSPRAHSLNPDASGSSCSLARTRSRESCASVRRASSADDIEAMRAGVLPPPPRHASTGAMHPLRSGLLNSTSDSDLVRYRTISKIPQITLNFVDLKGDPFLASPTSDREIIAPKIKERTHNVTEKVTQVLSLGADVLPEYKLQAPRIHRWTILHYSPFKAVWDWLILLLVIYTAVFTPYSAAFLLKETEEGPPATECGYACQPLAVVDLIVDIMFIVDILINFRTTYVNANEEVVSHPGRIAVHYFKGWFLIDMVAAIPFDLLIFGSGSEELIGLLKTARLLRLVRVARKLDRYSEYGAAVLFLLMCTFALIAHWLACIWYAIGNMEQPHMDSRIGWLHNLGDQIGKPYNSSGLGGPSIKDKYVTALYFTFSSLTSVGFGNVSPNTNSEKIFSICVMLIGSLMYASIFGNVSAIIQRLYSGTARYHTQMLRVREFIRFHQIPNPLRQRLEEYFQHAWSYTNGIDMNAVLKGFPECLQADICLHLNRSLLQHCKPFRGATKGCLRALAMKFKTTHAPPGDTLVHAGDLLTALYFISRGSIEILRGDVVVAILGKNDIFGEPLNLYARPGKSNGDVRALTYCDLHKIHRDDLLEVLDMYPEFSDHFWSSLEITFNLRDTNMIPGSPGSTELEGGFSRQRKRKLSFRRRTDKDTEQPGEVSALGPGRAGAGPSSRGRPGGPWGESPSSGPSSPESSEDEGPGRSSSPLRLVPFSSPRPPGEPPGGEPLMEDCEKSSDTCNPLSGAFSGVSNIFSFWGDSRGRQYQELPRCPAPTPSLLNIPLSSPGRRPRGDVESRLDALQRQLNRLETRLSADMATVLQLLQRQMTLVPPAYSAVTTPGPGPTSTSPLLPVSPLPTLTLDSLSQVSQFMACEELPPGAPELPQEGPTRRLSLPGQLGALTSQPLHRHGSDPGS
row,SMILES,"hERG current change (%, negative = inhibition) at 10uM"
1,COC(=O)c1nn(-c2ccccc2)c(Cl)c1/C=N/OC(=O)c1ccc(Cl)c(Cl)c1,4.58%
2,O=C(CSc1nncc2ccccc12)Nc1ccc(C(=O)O)cc1,10.6%
3,Cc1ccc(-c2csc3ncnc(N4CCN(S(=O)(=O)c5cccs5)CC4)c23)cc1,14%
4,O=C(Nc1cc(Cl)ccc1N1CCCCC1)c1cccs1,6.9%
5,CCOC(=O)N1CCC(N(C(=O)Nc2cccc(OC)c2)C(C)CC)CC1 (stereo not drawn),-1.67%
6,Cc1nc2ccc(-c3nc4ccc(N)cc4[nH]3)cc2[nH]1,20.4%
7,COCCn1nnnc1C(c1cc2cc(C)ccc2[nH]c1=O)N1CCCCCC1 (stereo not drawn),-0.827%
8,CS(=O)(=O)NN1C(=O)c2ccccc2NC1c1cccs1 (stereo not drawn),0.73%
9,O=C(CC(c1ccccc1)c1ccccc1O)NCCc1ccccc1 (stereo not drawn),12.7%
10,CN(C)S(=O)(=O)c1ccc(NC(=O)COc2ncnc3sccc23)cc1,15.7%
11,Cc1ccc(C(=O)OCC(=O)N(CC(C)C)c2c(N)n(Cc3ccccc3)c(=O)[nH]c2=O)o1,-4.51%
12,CC1=C(C(N)=O)C(c2ccccc2)n2nc(-c3cccc(C)c3)nc2N1 (stereo not drawn),-46.1%
13,C=CCOc1ccc(C=Nc2ccc(Cl)cc2)c(O)c1,8.47%
14,CC1CC(C)CN(C(=O)COc2ccc(-c3nnco3)cc2)C1 (stereo not drawn),1.83%
15,O=C(CCNC(=O)c1ccc(Br)cc1)NCCCSc1ccccc1,-22.4%
16,COc1ccc(/C(C)=N\n2cnnc2)cc1,6.86%
17,CCS(=O)(=O)c1ccc2c(c1)N(S(C)(=O)=O)CC(C(=O)NCc1ccccc1OC)O2 (stereo not drawn),-3.09%
18,C=CCn1c(SCc2nc3ccccc3[nH]2)nnc1-c1ccccn1,-18.7%
19,CCCn1nc(C(=O)NC2CCCCCC2)c2ccccc2c1=O,-19%

row,SMILES,"hERG current change (%, negative = inhibition) at 10uM"
1,Nc1cc(S(=O)(=O)C(F)(F)F)ccc1C(=O)O,17.6%
2,COC(=O)CCC(=O)c1ccc(OC)c(Cl)c1,12.2%
3,O=C(NCc1ccncc1)C(=O)Nc1nc2ccccc2s1,9.09%
4,Cc1ccc(N2C(=O)/C(=C/c3ccco3)SC2=S)cc1,16.8%
5,Cc1ccc(C)c(OCCC(=O)OCC(=O)N2CCN(S(=O)(=O)c3ccc(Cl)cc3)CC2)c1,-29.8%
6,N#C/C(=C\c1ccccc1)c1nc2ncccc2[nH]1,7.46%
7,N#Cc1cn(Cc2ccncc2)c(=O)[nH]c1=O,19.9%
8,COc1ccc(NC(=O)c2cc3ccccc3o2)cc1,-0.841%
9,CS(=O)(=O)Nc1nnc(Cc2ccccc2)s1,7.47%
10,O=C(N/N=C/c1ccccc1)c1c(O)c2ccccc2[nH]c1=O,5.86%
11,C=CCOc1ccc(/C=C/C(=O)OCC(=O)NCC2CCCO2)cc1 (stereo not drawn),-16.9%
12,COc1cc(C2c3c(oc4c(C)cc(C)cc4c3=O)C(=O)N2Cc2cccnc2)ccc1O (stereo not drawn),5.03%
13,CC(C)(C)c1ccc(N/N=C(\C#N)S(=O)(=O)C(C)(C)C)cc1,10%
14,Cc1c(/C=N/NC(=O)c2ccc3c(c2)OCO3)cnn1C,8.53%
15,Cc1c(NC(=S)Nc2cccc(Cl)c2)c(=O)n(-c2ccccc2)n1C,10.2%
16,Cc1ccc(C(=O)OCC(=O)Nc2ccc3c(c2)OCO3)cc1S(=O)(=O)N1CCOCC1,1.72%
17,O=C1C2CCCN2C(c2ccccc2F)N1c1ccc(F)cc1 (stereo not drawn),8.24%
18,CNC(=O)c1cc(Nc2nnc(-c3ccc(O)cc3)c3ccccc23)ccc1OC,4.28%
19,C/C(N)=C(/C#N)C(=O)COC(=O)c1cc(S(=O)(=O)N2CCCCC2)ccc1C,5.29%

row,SMILES,"hERG current change (%, negative = inhibition) at 10uM"
1,Cc1ccc(C(F)(F)F)cc1NC(N)=S,2.66%
2,CCOc1cccc(=O)c2c(C)n(CC3CCCO3)c(C)c12 (stereo not drawn),-2.39%
3,COc1cc2c(cc1OC)-c1cc(Nc3ccccc3)nc(=O)n1CC2,-64.1%
4,Cn1c(SCC(=O)Nc2ccc3c(c2)oc2ccccc23)nnc1-c1ccccc1,16.1%
5,COc1ccc(N(CC(=O)NC2CCCCC2)S(=O)(=O)c2cccnc2)cc1,-10.5%
6,Cc1ccc(NC(=S)/C(=C(\[O-])c2ccc(F)cc2)[n+]2ccccc2)cc1,9%
7,O=C1C(=O)N(CCN2CCOCC2)C(c2ccc(F)cc2)/C1=C(/O)c1ccc(S(=O)(=O)N2CCOCC2)cc1 (stereo not drawn),23.8%
8,COc1cc(OC)c(NS(=O)(=O)c2ccc(Cl)c(C(=O)OC(C)C(=O)N3CCCC3)c2)cc1Cl (stereo not drawn),-41%
9,O=C(c1ccc(Cl)cc1)N1CCc2c([nH]c3ccccc23)C1C(F)(F)F (stereo not drawn),12.9%
10,Cc1ccc(C)c(N2CCN(C(=O)Cn3ncc4c([nH]c5ccc(C)cc54)c3=O)CC2)c1,13.5%
11,Clc1cccc(Oc2ncccn2)c1,19.1%
12,Cn1cnnc1SCc1ccccc1[N+](=O)[O-],13.7%
13,O=C(COc1cnc2ccccc2n1)NCCC1=CCCCC1,11.3%
14,CCN(C(=O)CSc1nc2nc(C)cc(C)n2n1)C1CCS(=O)(=O)C1 (stereo not drawn),20.5%
15,COC(=O)c1ccc(Cl)c(NC(=O)CN2CCOCC2)c1,2.49%
16,CC1=[N+](C)c2ccc3ccccc3c2C1(C)C,-34.3%
17,Nc1ccccc1NC(=O)NC(=O)c1ccccc1,12.5%
18,COc1ccc(SC[C@H](Cc2ccccc2)N2CCN(CCc3ccccc3)CCC2=O)cc1,-74.6%
19,COC(=O)c1cc(-c2c(C)oc3cc(OC(C)C)ccc3c2=O)c(C)o1,-16.7%
